± gives the standard deviation of the averaged measurements. The list shows a part of the results.

This experiment relates to PfAP2-EXP AP2 domain (GST-tagged). The experiment can be described thus: gcPBM binding intensity (ln(normalized median fluorescence intensity)); higher = stronger DNA binding. In outline: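 GST-tagged P. falciparum DNA-binding domains produced in E. coli were incubated for 1 h on an Agilent 4 × 180k array of primer-extended double-stranded 36-bp intergenic genomic probes with negative controls. Binding intensity is the highest Masliner-normalised natural-log median intensity across replicate spots of either probe orientation, with bound protein detected by Alexa488 anti-GST antibody at 488 nm.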
Regarding “AAAAAAAATATATATGCACACACAAAAAAACAAATT [CACACA_site8349]”, the “gcPBM binding intensity (ln)” value came out at 8.79 ± 0.33.
The same measure for “ATATATATATATATATGTACATATATTTTTATTTAT [XGTACX_site3508]”: 10.3 ± 0.26; for “TTGTAATAAAGAATTAAAAAAAAATATATACAGGTA [GTGCAC_negctrl_site150]”: 8.44 ± 0.41; for “TATTACTTATAAATTACACACAAATGATTGAACATT [CACACA_site2259]”: 8.29 ± 0.38.
For “TTAATTACATGTAATTGTACTTAATTATAAGACATT [XGTACX_site464]” the value was 8.44 ± 0.27; for “TATACCTTTTTATTCACACATATATGTCATATGTCA [CACACA_site5423]”, 8.98 ± 0.43.
The same measure for “TTTTACCTAAATATCACACATATTTAAATATATATA [CACACA_site5597]”: 8.43 ± 0.36.
For “TTAAAATAAAGAAAATGTACATAAATAAAAATAAAG [XGTACX_site2280]”, the “gcPBM binding intensity (ln)” value was 9.11 ± 0.26.
For “CATGTTATGATTCCATGTACTTATAGCATTAAAAAA [XGTACX_site8939]” the value was 8.46 ± 0.057.
As for “TTTTTTTAATTAGTTTGTACATATTGTTATAATATA [XGTACX_site6294]”, the “gcPBM binding intensity (ln)” value came out at 8.56 ± 0.4.
“ATTATACCACCCGATATACACACTTGTAGACATCTT [CACACA_site7944]”: the “gcPBM binding intensity (ln)” value was 8.74 ± 0.47.
With “AAAAAAAAATACATATGTACTTATGTATAATGTTGT [XGTACX_site8104]”, the “gcPBM binding intensity (ln)” value was found to be 8.58 ± 0.33.
The same measure for “TATATTAAACCATGTAGTACCTTGAATAAATATTAT [XGTACX_site8254]”: 8.43 ± 0.32; for “ATAAAAAGGAGACACACACACACACGCATATTTATA [CACACA_site6551]”: 8.82 ± 0.67.
For “AACATATATATATATACATGCATATGAACAACGAAT [TGCATGCA_site93]” the value was 9.34 ± 0.48.
The same measure for “TGTATAAATATAATCACACATATATATATATATATA [CACACA_site4365]”: 10.3 ± 0.73; for “TATAAAAATGTTTACACACACACATAAATATATTTT [CACACA_site2512]”: 8.51 ± 0.41.
For the sequence “TTTTTTTTTTTTCTGAGTACGAAAAATAGAGATAGA [XGTACX_site3825]”, the “gcPBM binding intensity (ln)” value was 8.7 ± 0.53.
The same measure for “AAGTTACAAAATCAAAAGGAAAAAATATAAAATAAT [CACACA_negctrl_site561]”: 8.72 ± 0.3; for “CAAGAAAATTGACACACACACATATTTATATTTATA [CACACA_site7766]”: 8.36 ± 0.48; for “ATGAATAAATTAAAAATGCACACTTTGATGGGTACA [CACACA_site2157]”: 8.32 ± 0.092.
In the case of “TATATATATATATATACACACTATATAATTCAAACA [CACACA_site4712]”, the “gcPBM binding intensity (ln)” value is 10.1 ± 0.33.
For “TATACCAGTTTTAAAAGTACTTGTGCATAAAAAATA [XGTACX_site4794]” the value was 8.85 ± 0.099; for “TTACGATTATACAAAAGTACATGTATTACACAATAT [XGTACX_site5138]”, 8.6 ± 0.33.
For “AAATTGGGGCTTGTTACACACTTAGTGGGAGTTCTA [CACACA_site4485]” the value was 8.84 ± 0.6; for “AAACTTGTAAGAAACACACACACACCCATATATATA [CACACA_site797]”, 8.86 ± 0.31.
For “AAATTATATTCAAGTGCATGTAACTTATTATTATAT [TGCATGCA_site526]” the value was 8.71 ± 0.28; for “CACTATATAAGAACCTGTACTCAATTTTGCAATATA [XGTACX_site7238]”, 8.57 ± 0.29; for “ATATTTATTTATTTATGTACGCACACAGTTGATATT [XGTACX_site5808]”, 8.92 ± 0.4.
“TAATAATAAAAATAAACACACATATATATGTATATA [CACACA_site2853]”: the “gcPBM binding intensity (ln)” value was 8.39 ± 0.32.
For “TATATTTTCCTGCAAACACACATATAAATGTGTAGA [CACACA_site533]” the value was 8.35 ± 0.3; for “TATAATCAATATGTAACACACAAAAGTTATATACTT [CACACA_site7368]”, 8.37 ± 0.44.
The same measure for “AACATGCTCAACTTTTTTTTTTTTTTTTTTTTTTTT [CACACA_negctrl_site1617]”: 9.08 ± 0.11; for “GTAAAAATAAAAACTGGTACACAAGTTGTTATAAAA [XGTACX_site502]”: 8.54 ± 0.33.
Consider “AAAATAAAATAAAAGTGTACGTTTTAAGAACATTGA [XGTACX_site2382]”, for which the “gcPBM binding intensity (ln)” value was 8.55 ± 0.33.
Regarding “CTTTTTTGTTAAAGTGTGCGCAATAGTTATAGACTT [GTGCAC_site9670]”, the “gcPBM binding intensity (ln)” value was 8.81 ± 0.42.
For “AATCTTAAAAATATATGTACTAAAAAAAAAAAAAAT [XGTACX_site6195]” the value was 8.37 ± 0.47; for “ATTCTCCAAGTTTGATGTACACATATGACGACGGCG [XGTACX_site4912]”, 8.75 ± 0.42; for “TTTTTATATTTAATGTGTCCTCACTTAAAAGGATGA [XGTACX_site2744]”, 8.27 ± 0.27.
The same measure for “TATAATAATTATACATGTACACATTATTTGGATAAA [XGTACX_site5552]”: 8.49 ± 0.3.
Regarding “AATATATTTTTTGGTTGTACAGAGATCTTTGTAGAA [XGTACX_site1707]”, the “gcPBM binding intensity (ln)” value was determined as 8.55 ± 0.49.
“TACAATAAGGATAAGTGTACATATGTGCATACATAT [XGTACX_site7188]”: the “gcPBM binding intensity (ln)” value amounted to 8.58 ± 0.24.
For AAAAATTATAGAAAAGTGCAATACATGTTACACCAT the value was 8.635 ± 0.064; for “CATATAGCATAATCATGTACACATACAACAAATAGG [XGTACX_site1589]”, 8.88 ± 0.3; for “TTCACCAGTTGGTAAACATGCAATTTTCCATACAAG [TGCATGCA_site267]”, 8.48 ± 0.35.
Regarding “ATATAAATACATAAATGTACTTACCATTTAAATATG [XGTACX_site5254]”, the “gcPBM binding intensity (ln)” value was found to be 8.39 ± 0.3.
The same measure for “AAAAAAAACGGACACACACACATACCCATACATACA [CACACA_site5574]”: 8.78 ± 0.49.
The same measure for ATTCTTTTAAAATAGGTGCTAAAAATAATATGTTAC: 8.71 ± 0.16; for “ATATAAACAATATTTTGTACATAATTTTATGAGCAT [XGTACX_site6933]”: 8.43 ± 0.4; for “AAAGAAAGAAGAAATTGTACATAATAAATAAGTAAA [XGTACX_site3311]”: 8.64 ± 0.49.
Regarding “GCATATGTTTATTGCACACACCAAAAAGAAAACATA [CACACA_site4384]”, the “gcPBM binding intensity (ln)” value is 8.76 ± 0.4.
As for “ATTATTTGTTTAATGAGTACGAAGACAAATTTTACC [XGTACX_site5223]”, the “gcPBM binding intensity (ln)” value was 8.93 ± 0.42.
On to “GTACTATACAAAGATGATAATCAATATATATATATA [XGTACX_negctrl_site264]”, for which the “gcPBM binding intensity (ln)” value came to 10.1 ± 0.26.
“TATATACACAGACACACACACACATACACGCACATA [CACACA_site6909]”: the “gcPBM binding intensity (ln)” value amounted to 8.72 ± 0.4.
For “AAAGGAAAAAAAAGCACACACAATATTACTTGAAAT [CACACA_site2588]” the value was 8.65 ± 0.67; for “TACATTTATATATATACACACACACTAATAAAAAAA [CACACA_site8845]”, 8.77 ± 0.64.
The same measure for “TAAATACAGATATATACACACATATATATATTTTAT [CACACA_site5970]”: 8.23 ± 0.4.

The values above are taken from the supplement of paper PMC11417369.
